Results from ChEMBL document CHEMBL4888484, “Replenishing the malaria drug discovery pipeline: Screening and hit evaluation of the MMV Hit Generation Library 1 (HGL1) against asexual blood stage Plasmodium falciparum ,using a nano luciferase reporter read-out” (2022).
Where “and” joins values, the source holds several entries; their conditions need not be identical. Identical values can stand only once. The whole screen tested about 150,000 compounds, of which about 540 (0.36%) showed an effect of 50% or more. Some of the results follow.

System: Plasmodium falciparum
Assay: Primary screen in NF54 nanoGlo assay, in single point, at 2uM, 72h; a lower Z score goes with more inhibition
Assay type: functional, Erythrocyte
Settings: timepoint 72 hour

For `C[C@H](NC(=O)N1CCC(c2ccc3cccnc3n2)CC1)c1nccs1`, the “% Inhibition” value was -13% and the Z score was 1.94.

`CCOCCC1(C(=O)NCc2cn([C@H]3CCOC3)nn2)CCCC1` was tested, and the “% Inhibition” value was -4% and the Z score was 0.89.

`Cc1cc(C(=O)N[C@@]2(C#N)CC2(C)C)cc(C)c1F` was tested, and the “% Inhibition” value was -11% and the Z score was 1.83.

`CC1CCC2(CC1)C[C@H](C)c1ccccc1CN2` (stereo not given in full) was tested, and the “% Inhibition” value (2 µM) was 2% and -14% and 1%.

With `Cc1cc(-c2cccc(Cl)c2)ccc1NC(=O)N1CC(CO)C1` the “% Inhibition” value was -4% and the Z score was 0.42.

In the case of `CCc1ccccc1CN1CCC[C@@]2(CCN(C(=O)c3ccco3)C2)C1`, the “% Inhibition” value is reported as -4% and the Z score is reported as 0.49.

For `CCc1nc2cc(N3CCC(C(=O)NCc4cc(F)cc(F)c4)CC3)cnc2nc1CC`, the “% Inhibition” value was -5% and the Z score was 0.82.

`CO[C@H]1CN(c2nccc(C3CCCC3)n2)CC[C@H]1N` was tested, and the “% Inhibition” value was -14% and the Z score was 1.55.

With `Cc1cccc(-c2nnc(C)c(N3CCN(C)CC3)n2)c1` the “% Inhibition” value was 0% and the Z score was 0.1.

In the case of `Cc1n[nH]cc1CN(C)S(=O)(=O)c1cc(-c2cc(C(F)(F)F)on2)oc1C`, the “% Inhibition” value is reported as -10% and the Z score is reported as 1.93.

With `O=C(Nc1nncs1)c1ccc2c(c1)CCCC2` the “% Inhibition” value was -4% and the Z score was 0.56.

In the case of `CC(C)CC1(C(=O)N[C@H]2CCN(c3cc(=O)n(C)c(=O)[nH]3)C2)CCC1`, the “% Inhibition” value is reported as -14% and the Z score is reported as 2.42.

For `O=C(c1cscn1)N1CCC[C@H](c2nccn2Cc2cccnc2)C1`, the “% Inhibition” value was -10% and the Z score was 1.45.

For `CC12CCC(C(=O)N3CCN(Cc4ccc5c(c4)OCO5)CC3)(CC1=O)C2(C)C` (stereo not given), the “% Inhibition” value was 0% and the Z score was 0.04.

`Cc1ccc(-c2nn(Cn3cc(Cl)cn3)c(-c3ccc(C)c(C)c3)c2Br)cc1C` was tested, and the “% Inhibition” value was -13% and the Z score was 1.49.

In the case of `CCC(=O)N1CC[C@H](NC(=O)Nc2cc(C)cc(N3CCN(C)CC3)c2)C1`, the “% Inhibition” value is reported as 16% and the Z score is reported as -2.07.

`CC(=O)N1CCC(C(=O)OCc2ccc(-c3c[nH]cn3)cc2)CC1` was tested, and the “% Inhibition” value was 11% and the Z score was -2.08.

`Cc1cc([C@H](C)NCCCNS(C)(=O)=O)cc(C)c1F` was tested, and the “% Inhibition” value was -3% and the Z score was 0.3.

With `CC(C)(C)n1ncnc1CNC(=O)NCc1ccc(C2CC2)cc1` the “% Inhibition” value was -4% and the Z score was 0.69.

For `CC(C)C(NS(=O)(=O)c1ccccc1F)C(=O)NCC1COc2ccccc2O1` (stereo not given), the “% Inhibition” value was 3% and the Z score was -0.34.

In the case of `CCCC1CCCCC1NC(=O)COC` (stereo not given), the “% Inhibition” value is reported as -1% and the Z score is reported as 0.1.

`Cn1c(=O)c2[nH]c(N3CCN(C(=O)c4ccccc4F)CC3)nc2n(C)c1=O` was tested, and the “% Inhibition” value was -6% and the Z score was 1.16.

With `Cc1cnc(-c2ccncc2)n1CC1CN(C(=O)c2ccnn2C)C1` the “% Inhibition” value was 2% and the Z score was -0.2.

With `Cc1ccc(-n2nc(C(=O)NCc3ccncc3)c(=O)n(Cc3ccccc3)c2=O)cc1` the “% Inhibition” value was -7% and the Z score was 0.83.

In the case of `Cc1cc2nc(C)c(=O)n(Cc3ccc(C(=O)NCCN4CCCC[C@@H]4C)cc3)c2cc1C`, the “% Inhibition” value is reported as 45% and the Z score is reported as -2.1.

With `CC(C)CN1CC[C@H](N2CCN(c3cccc(C(F)(F)F)c3)CC2)[C@H](CCC(=O)O)C1` the “% Inhibition” value was 9% and the Z score was -1.26.

For `CC(=O)N1CCN(C(=O)[C@H](O)c2ccccc2)CCC12CCOCC2`, the “% Inhibition” value was 0% and the Z score was -0.04.

`O=C(NCCc1nc2cccnc2n1-c1ccccc1)NC1CCCC1` was tested, and the “% Inhibition” value was -25% and the Z score was 2.2.

`CC(C)c1ncc(C(=O)N2CCN(c3ccc(F)c(Cl)c3)CC2)cn1` was tested, and the “% Inhibition” value was -2% and the Z score was 0.22.

With `Cc1cccc(C(=O)NC(=O)Nc2nc(-c3ccccc3)cc(C(F)(F)F)n2)c1` the “% Inhibition” value was -12% and the Z score was 1.65.

For `C[C@@H](CC1CCOCC1)Nc1ccc(CC#N)cc1`, the “% Inhibition” value was -8% and the Z score was 0.92.

For `Cc1nnc([C@H]2CN(C(=O)c3cnn(C)c3)CC23CCN(Cc2ccccc2)CC3)o1`, the “% Inhibition” value was -10% and the Z score was 1.46.

For `CCCN(CC)C[C@@H](C)NC(=O)c1cc(N2CC(C)OC(C)C2)ccn1` (stereo not given in full), the “% Inhibition” value was -2% and the Z score was 0.24.

With `Cc1nc(CN2CCCN(c3cc(C(F)F)ncn3)CC2)oc1C` the “% Inhibition” value was -1% and the Z score was 0.11.

`COc1ccc(N2CCN(C(=O)[C@H]3CCCN(c4nnc(N5CCCC5=O)s4)C3)CC2)cc1` was tested, and the “% Inhibition” value was -2% and the Z score was 0.32.

For `Cc1nc(C(=O)N(C)Cc2ccc3c(c2)OCO3)c(C)s1`, the “% Inhibition” value was -17% and the Z score was 1.43.

For `CCC(=O)NCC1=CCN(CC(=O)N2CCCCCC2)CC1`, the “% Inhibition” value was -8% and the Z score was 1.59.

In the case of `Cc1ccc(-c2oc(NC(=O)c3ccccc3Br)c(C#N)c2-c2ccc(C)cc2)cc1`, the “% Inhibition” value is reported as 10% and the Z score is reported as -1.12.

In the case of `CCc1ccccc1S(=O)(=O)N1CCC(Oc2nc(C(C)C)nc3c2CCOCC3)CC1`, the “% Inhibition” value is reported as -5% and the Z score is reported as 0.85.

With `Cc1cc(OCc2cncc(F)c2)nn1C` the “% Inhibition” value was -14% and the Z score was 1.67.

With `COc1ccc(CC(=O)NC[C@H]2CCC3(CCOCC3)CO2)c(C)c1` the “% Inhibition” value was -13% and the Z score was 1.69.

For `O=C(c1cccnn1)N1CC(Oc2ccccc2Cl)C1`, the “% Inhibition” value was -16% and the Z score was 3.12.

With `Cc1nc(N2CCOCC2)sc1Cc1ccccc1F` the “% Inhibition” value was -4% and the Z score was 0.84.

With `COc1ccc(C(=O)N2CCN(c3cnccn3)CC2)cc1S(=O)(=O)N1CCCCCC1` the “% Inhibition” value was -5% and the Z score was 0.8.

`COCCn1c(C(c2ccccc2)c2ccccc2)nc2ccccc21` was tested, and the “% Inhibition” value was 12% and the Z score was -1.28.

`COCc1nc(C(=O)Nc2nc3ccccc3n2C2CCCC2)cs1` was tested, and the “% Inhibition” value was 33% and the Z score was -3.72.

`O=C(c1ccc(F)cc1)N1CCN(S(=O)(=O)c2cccnc2)CC1` was tested, and the “% Inhibition” value was -4% and the Z score was 0.49.

`CCn1cc(CNC(=O)c2cc(COc3ccc4ncccc4c3)on2)cn1` was tested, and the “% Inhibition” value was -4% and the Z score was 0.5.

With `CC(C)[C@]1(C)CC(=O)N(Cc2nccn2Cc2ccccc2)C1=O` the “% Inhibition” value was -10% and the Z score was 0.93.

For `CN1CCN(C[C@@H]2CN(C(=O)c3cc(-c4ccccc4)n[nH]3)C[C@@H]2CO)CC1`, the “% Inhibition” value was 4% and the Z score was -0.77.

`CO[C@@H](C(=O)NCc1ccon1)c1ccccc1C(F)(F)F` was tested, and the “% Inhibition” value was -5% and the Z score was 0.61.

`O=C(NCCc1ccc2c(c1)OCCO2)c1ccc(Cl)s1` was tested, and the “% Inhibition” value was -7% and the Z score was 1.09.

In the case of `C[C@H](NC(=O)Cn1c(-c2cccs2)cc2cc(Cl)ccc21)C(=O)N1CCCCC1`, the “% Inhibition” value is reported as -15% and the Z score is reported as 1.88.
